Laboratory results published in the supplement of paper PMC4604168 (melanoma cell lines).
The list shows a part of the results. Repeats are few or missing, and single values can be far off.

Legend:
Assay in all cases: cell count relative to DMSO control; melanoma cells; higher = more viable cells
Conditions in all cases: library dose: standard library concentration; 72 h
[1] = system: G361
[2] = system: IPC-298
[3] = system: IST-MEL1
[4] = system: LB2518-MEL
[5] = system: LOXIMVI
[6] = system: MEL-HO
[7] = system: MZ2-MEL
[8] = system: MeWo
[9] = system: RPMI7951
[10] = system: RVH-421
[11] = system: SkMel28
[12] = system: SkMel2
[13] = system: SkMel30
[14] = system: SkMel5
[15] = system: UACC257
[16] = system: UACC62
[17] = system: WM115
[18] = system: WM1716
[19] = system: WM1745
[20] = system: WM3526
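Note: cells treated in 1,536-well plates, then fixed and DAPI-stained, with nuclei counted from automated high-throughput microscope images.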

SMILES | cell count [1] [%] | cell count [2] [%] | cell count [3] [%] | cell count [4] [%] | cell count [5] [%] | cell count [6] [%] | cell count [7] [%] | cell count [8] [%] | cell count [9] [%] | cell count [10] [%] | cell count [11] [%] | cell count [12] [%] | cell count [13] [%] | cell count [14] [%] | cell count [15] [%] | cell count [16] [%] | cell count [17] [%] | cell count [18] [%] | cell count [19] [%] | cell count [20] [%]
OCc1c[nH]c2ccccc12 [Indole-3-carbinol] + OCCn1cc(-c2cnc3nnn(Cc4ccc5ncccc5c4)c3n2)cn1 [PF04217903] (first compound 4 µM, partner dose 5 µM) | 115 | 113 | 121 | 79.2 | 99.2 | 106 | 142 | 85.2 | 188 | 122 | 115 | 86.6 | 99.5 | 91.3 | 89.4 | 95.3 | 117 | 88 | 78.3 | 94.8
C#Cc1cccc(Nc2ncnc3cc(OCCOC)c(OCCOC)cc23)c1 [erlotinib] + CO[C@@H]1[C@H](N(C)C(=O)c2ccccc2)C[C@H]2O[C@]1(C)n1c3ccccc3c3c4c(c5c6ccccc6n2c5c31)C(=O)NC4 [Midostaurin] (first compound 4 µM, partner dose 0.4 µM) | 44 | 59.8 | 79.9 | 53.6 | 47.8 | 65.4 | 72 | 64.8 | 30.1 | 62.9 | 42.2 | 53.5 | 63.7 | 40.4 | 55.8 | 41.2 | 35.6 | 42.1 | 25.1 | 49.7
COCC[n+]1c2c(n(Cc3cnccn3)c1C)C(=O)c1ccccc1C2=O + O=C(O)C(=O)Nc1sc2c(c1C(=O)O)CCNC2 [TCS401] (first compound 0.002 µM, partner dose 8.33333 µM) | 83.7 | 48.4 | 57.6 | 38.5 | 83.6 | 93.8 | 31.4 | 59.4 | 33.7 | 101 | 31.9 | 38.3 | 72.2 | 40.1 | 27.1 | 68.2 | 69.4 | 63.9 | 65.6 | 40.2
OCc1c[nH]c2ccccc12 [Indole-3-carbinol] + CCN(CC)CCCCNc1ncc2cc(-c3cc(OC)cc(OC)c3)c(NC(=O)NC(C)(C)C)nc2n1 [PD173074] (first compound 4 µM, partner dose 0.5 µM) | 101 | 100 | 92.4 | 84.1 | 89.8 | 95.9 | 111 | 89.1 | 99.1 | 83 | 116 | 88.1 | 74.4 | 108 | 117 | 117 | 108 | 101 | – | 119
C#Cc1cccc(Nc2ncnc3cc(OCCOC)c(OCCOC)cc23)c1 [erlotinib] + CC(C)(C)c1cnc(CSc2cnc(NC(=O)C3CCNCC3)s2)o1 [SNS-032] (first compound 4 µM, partner dose 0.05 µM) | 82.7 | 92.4 | 95.6 | 53.1 | 76.7 | 84.7 | 96 | 78.8 | 40.1 | 82.6 | 49.9 | 59.3 | 106 | 64.8 | 98.8 | 57.7 | 59.9 | 86.9 | 46.4 | 84.7
OCc1c[nH]c2ccccc12 [Indole-3-carbinol] + O=C(O)c1ccc(-c2c[nH]c3ncc(-c4ccccc4)cc23)cc1C1CCCC1 [GSK650394] (first compound 4 µM, partner dose 0.8 µM) | 63.2 | 89.3 | 62.1 | 82.1 | 65.3 | 71.6 | 91 | 81.8 | 61.3 | 79.7 | 75.8 | 68.9 | 85.7 | 68.3 | 70.1 | 83.2 | 58.9 | 79.2 | 62.1 | 102
O=C(CCCCCCC(=O)Nc1ccccc1)NO [vorinostat] + C[C@@H]1CCN(C(=O)CC#N)C[C@@H]1N(C)c1ncnc2[nH]ccc12 [CP690550] (first compound 0.4 µM, partner dose 5 µM) | 71.4 | 88.9 | 98.7 | 93 | 69.2 | 91.3 | 111 | 95.7 | 59.2 | 118 | 55.3 | 76.4 | 82.2 | 82 | 62.4 | 64.8 | 81.1 | 87.2 | 84.8 | 77.4
OCc1c[nH]c2ccccc12 [Indole-3-carbinol] + CC(C)CCN1c2nc(Nc3cc(F)c(O)c(F)c3)ncc2N(C)C(=O)C1C [BID1870] (first compound 4 µM, partner dose 1 µM) | 64.2 | 76.4 | 86 | 88.7 | 91.8 | 72 | 84.9 | 64.2 | 74.4 | 75.2 | 57 | 82.6 | 74 | 78 | 80.8 | 99.7 | 93.8 | 90.9 | – | 73
Clc1ccc(Nc2nnc(Cc3ccncc3)c3ccccc23)cc1 [vatalanib] + NCC(=O)Nc1ccc(-n2nc(C(F)(F)F)cc2-c2ccc3c(ccc4ccccc43)c2)cc1 [OSU03012] (first compound 10 µM, partner dose 5 µM) | 41.9 | 39.7 | 64.9 | 25.2 | 46.2 | 46 | 18.4 | 63.5 | 30 | 30.4 | 11.1 | 17.4 | 18.9 | 31.5 | 63.4 | 50.7 | 54.4 | 64.1 | 24.9 | 26.6
COCC[n+]1c2c(n(Cc3cnccn3)c1C)C(=O)c1ccccc1C2=O + Cc1cc([N+](=O)[O-])ccc1NS(=O)(=O)c1cc(Cl)ccc1Cl [FH535] (first compound 0.002 µM, partner dose 5 µM) | 41.3 | 41.5 | 51.1 | 35.2 | 57.7 | 53.8 | 15.2 | 52.8 | 55.5 | 77.6 | 33.2 | 33 | 58.2 | 45.5 | 24.2 | 76.9 | 81.7 | 77.4 | 78.4 | 61.9
Clc1ccc(Nc2nnc(Cc3ccncc3)c3ccccc23)cc1 [vatalanib] + COc1ccc(COc2ccc(Cc3cnc(N)nc3N)cc2OC)cc1 [GW2580] (first compound 10 µM, partner dose 5 µM) | 74.8 | 69.5 | 84.6 | 93.8 | 83.9 | 80.5 | 79.3 | 65.6 | 73.3 | 87.4 | 67.3 | 75 | 64.9 | 53.4 | 71.8 | 93 | 93.4 | 74.6 | – | 73.8
Clc1ccc(Nc2nnc(Cc3ccncc3)c3ccccc23)cc1 [vatalanib] + O=c1cc(-c2cccc3c2Sc2ccccc2S3)oc(N2CCOCC2)c1 [KU55933] (first compound 10 µM, partner dose 5 µM) | 41.6 | 60.8 | 73.1 | 68.9 | 76.3 | 57.5 | 78.6 | 55.5 | 69.1 | 69.3 | 71.8 | 68.4 | 95.6 | 65.6 | 76.5 | 77.5 | 72 | 85.3 | – | 61.2
OCc1c[nH]c2ccccc12 [Indole-3-carbinol] + O=C1NC(=O)/C(=C/c2ccc(-c3ccc(F)cc3O)o2)S1 [AS252424] (first compound 4 µM, partner dose 5 µM) | 77.5 | 79 | 90 | 79.4 | 106 | 74.3 | 85.1 | 84.1 | 89.9 | 41.7 | 71.9 | 75.9 | 83.1 | 70.1 | 88.3 | 91.9 | 92.3 | 133 | – | 83.4
OCc1c[nH]c2ccccc12 [Indole-3-carbinol] + Oc1nc(-c2ccc(C(F)(F)F)cc2)nc2c1CSCC2 [XAV939] (first compound 4 µM, partner dose 10 µM) | 107 | 94.1 | 115 | 95.1 | 83.3 | 84.5 | 104 | 97 | 82.1 | 90.6 | 82.1 | 107 | 90.7 | 78.8 | 86.2 | 79.5 | 83.8 | 57.9 | – | 116
Nc1cccc2c1CN(C1CCC(=O)NC1=O)C2=O (stereo not drawn) [lenalidomide] + COc1cc2c(Oc3ccc4[nH]c(C)cc4c3F)ncnc2cc1OCCCN1CCCC1 [cediranib] (first compound 5 µM, partner dose 2 µM) | 78.3 | 99 | 91.5 | – | 63.4 | 92.4 | – | 76.5 | 68.4 | 74.4 | 89.3 | – | 101 | 87.1 | 93.7 | 72.9 | 94.6 | 85.3 | 74.1 | 93.1
Clc1ccc(Nc2nnc(Cc3ccncc3)c3ccccc23)cc1 [vatalanib] + CCCCCCCCCCCC1=C(O)C(=O)C=C(O)C1=O [Embelin] (first compound 10 µM, partner dose 6 µM) | 58 | 52.8 | 65.4 | 84.7 | 87 | 54.7 | 66.2 | 70.4 | 54.6 | 44.6 | 75.9 | 76.5 | 101 | 70.9 | 73.4 | 108 | 94.5 | 77 | – | 88.6
OCc1c[nH]c2ccccc12 [Indole-3-carbinol] + Cc1cc([N+](=O)[O-])ccc1NS(=O)(=O)c1cc(Cl)ccc1Cl [FH535] (first compound 4 µM, partner dose 5 µM) | 40.1 | 49.9 | 53.5 | 77.4 | 68.2 | 49 | 57.6 | 80.8 | 88.8 | 51.4 | 58 | 78.2 | 76.7 | 60 | 64 | 78.7 | 82.6 | 81 | – | 64.9
OCc1c[nH]c2ccccc12 [Indole-3-carbinol] + N#Cc1c(O)c2c(-c3ccc(-c4ccccc4O)cc3)csc2[nH]c1=O [A769662] (first compound 4 µM, partner dose 10 µM) | 104 | 103 | 88.6 | 103 | 91.7 | 100 | 117 | 98.8 | 102 | 113 | 97.5 | 118 | 123 | 98.7 | 92 | 93 | 113 | 87.3 | – | 107
